# Experimental data reported in article PMC4336329 (PLoS ONE, 2015).
# In all, about 310,000 compounds went through this assay and about 2,200 (0.71%) showed an effect of 50% or more. Effects have a minus sign here. The list shows a part of the results.
# Target: human ether-à-go-go-related gene (hERG) potassium channel (human, UniProt Q12809)
# Test: primary screen, population patch clamp on CHO cells stably expressing hERG
# Sequence of human ether-à-go-go-related gene (hERG) potassium channel (Q12809 whole entry, looked up): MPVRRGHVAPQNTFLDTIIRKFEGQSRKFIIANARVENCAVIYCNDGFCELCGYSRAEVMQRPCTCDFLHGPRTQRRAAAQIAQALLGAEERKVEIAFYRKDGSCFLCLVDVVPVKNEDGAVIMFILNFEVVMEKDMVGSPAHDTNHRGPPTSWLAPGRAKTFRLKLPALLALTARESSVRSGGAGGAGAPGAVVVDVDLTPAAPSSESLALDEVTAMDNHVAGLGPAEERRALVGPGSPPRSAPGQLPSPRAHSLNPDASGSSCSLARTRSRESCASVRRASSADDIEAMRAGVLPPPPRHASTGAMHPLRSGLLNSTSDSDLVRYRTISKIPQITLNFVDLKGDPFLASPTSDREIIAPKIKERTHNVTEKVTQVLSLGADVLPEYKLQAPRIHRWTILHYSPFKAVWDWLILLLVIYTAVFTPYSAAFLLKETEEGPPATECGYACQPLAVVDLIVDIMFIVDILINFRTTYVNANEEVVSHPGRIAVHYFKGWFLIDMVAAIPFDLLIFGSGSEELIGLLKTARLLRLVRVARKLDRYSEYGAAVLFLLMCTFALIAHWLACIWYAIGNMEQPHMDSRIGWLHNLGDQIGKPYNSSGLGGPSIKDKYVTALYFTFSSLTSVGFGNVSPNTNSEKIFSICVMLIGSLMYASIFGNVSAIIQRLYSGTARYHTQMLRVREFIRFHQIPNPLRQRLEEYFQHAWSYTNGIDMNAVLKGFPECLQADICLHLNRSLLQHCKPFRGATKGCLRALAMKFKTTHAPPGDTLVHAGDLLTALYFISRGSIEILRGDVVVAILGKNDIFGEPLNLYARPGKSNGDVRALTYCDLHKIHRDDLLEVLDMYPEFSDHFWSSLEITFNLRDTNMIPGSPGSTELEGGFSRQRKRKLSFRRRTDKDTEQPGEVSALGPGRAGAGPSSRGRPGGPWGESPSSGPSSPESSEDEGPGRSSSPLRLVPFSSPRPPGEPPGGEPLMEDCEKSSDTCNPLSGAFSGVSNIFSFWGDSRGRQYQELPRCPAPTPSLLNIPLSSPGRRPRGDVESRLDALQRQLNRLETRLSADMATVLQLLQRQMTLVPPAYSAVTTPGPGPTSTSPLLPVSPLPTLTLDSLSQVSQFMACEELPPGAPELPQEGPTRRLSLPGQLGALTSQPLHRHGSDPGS
row,SMILES,"hERG current change (%, negative = inhibition) at 1uM [%]"
1,COc1ccccc1CCNC(=O)C(=O)NCC1OCCN1S(=O)(=O)c1ccc(C)cc1 (centres unmarked),10.2
2,O=C(NC1CCN(Cc2ccccc2)CC1)C1CCN(c2nnc(-n3cccc3)s2)CC1,-28.2
3,Cc1ccc(-c2nn(Cc3ccccc3)cc2/C=C/C(=O)O)cc1,1.95
4,CO[C@@]1(NC(=O)C2SC(=C(C(N)=O)C(=O)O)S2)C(=O)N2C(C(=O)O)=C(CSc3nnnn3C)CS[C@@H]21 (some centres unmarked),12.4
5,CC(=O)NS(=O)(=O)c1ccc(NC(=O)CN2C(=O)C3C4C=CC(C4)C3C2=O)cc1 (centres unmarked),8.74
6,COc1cccc(NC(=O)CC2Oc3ccccc3NC2=O)c1 (centres unmarked),9.29
7,O=C(NC1CCCC1)C(Cc1ccccc1)n1cccc1 (centres unmarked),8.73
8,COc1cccc(NC(=O)CN(C)C(=O)c2cc(-c3ccco3)nc3ccccc23)c1,-11.6
9,O=c1[nH]c(=S)[nH]c2nc(-c3ccccc3)cnc12,16.9
10,CCCC1Cc2c(sc3ncnc(N)c23)CO1 (centres unmarked),6.79
11,COC(=O)c1ccc(C(=O)OC)c(NC(=O)CSc2cccc[n+]2[O-])c1,8.22
12,NC(=O)C1CCN(c2oc(-c3ccc(F)cc3)nc2S(=O)(=O)c2ccccc2)CC1,1.98
13,O=C(CSCc1cnn(-c2ccccc2)c1-n1cccc1)N1CCN(Cc2ccccc2)CC1,-3.03
14,CC(=O)N=C1SC2CS(=O)(=O)CC2N1c1c(Cl)cccc1Cl (centres unmarked),1.8
15,Cc1ccccc1NC(=O)C1CC(=O)n2ncnc2N1 (centres unmarked),18.2
16,O=C(O)C(=O)O.c1ccc(-c2ccc(OCCCNC3CCCC3)cc2)cc1,-54.9
17,COc1cccc(NC(=O)N2CCCC2C(=O)NC2CC2)c1 (centres unmarked),0.311
18,Cn1c(-c2cc3ccccc3oc2=O)nc2ccccc21,12.6
19,O=C(COc1ccccc1Br)c1ccc(O)cc1O,9.21
20,O=[N+]([O-])c1cccnc1S(=O)(=O)c1ccccc1,15.6
21,COc1ccc(-c2nnc(SCC(=O)NCc3cccs3)n2C(C)C)cc1,-9.21
22,c1ccc(Oc2ccc(-n3cnnn3)cc2)cc1,-0.369

row,SMILES,"hERG current change (%, negative = inhibition) at 1uM [%]"
1,O=C(CSc1cn(Cc2ccccc2)c2ccccc12)Nc1nccs1,13.8
2,Cc1cc(C)cc(NC2=NCCCS2)c1,-6.06
3,O=C(NCC(=O)N1CCCCCCC1)c1ccccc1Br,13.8
4,COc1ccc(-n2ccnc2SCC(=O)Nc2ccccc2)cc1,-4.79
5,COc1cc(OC)c(C(=O)NNC(=O)CN(C)S(=O)(=O)c2ccc(Cl)cc2)cc1OC,-3.03
6,CCC(CC)C(=O)Nc1ccc(C)c(O)c1,5.34
7,COc1ccc(S(=O)(=O)N2CCOC2CNC(=O)C(=O)NCc2ccco2)cc1C (centres unmarked),8.16
8,Cc1c(NC(=O)c2c(N)sc3c2CCCC3)c(=O)n(-c2ccccc2)n1C,-8.17
9,COc1ccc(C2NC(=O)NC(C)=C2C(=O)OC2CCCCC2)cc1OC (centres unmarked),10.5
10,Cc1ccc2nc(SCC(=O)c3ccc(Cl)s3)[nH]c2c1,15.9
11,COc1cccc(C2C([N+](=O)[O-])=C(N)Oc3c2c(=O)oc2ccccc32)c1 (centres unmarked),11.1
12,C=C(C)C(=O)Nc1cccc(C2=NOC3(C2)C[C@H](C(N)=O)N(C(=O)CC)C3)c1 (some centres unmarked),5.87
13,Cc1nn(C)c(Cl)c1NC(=O)OCc1ccc(Cl)cc1Cl,5.22
14,CCOC(=O)C(=NCCOC)NNc1cc(Cl)ccc1Cl,-1.87
15,C/C(CS(=O)(=O)c1ccc(Cl)c(Cl)c1)=N/NC(N)=S,5.79
16,Fc1ccc(-c2nnn(Cc3ccc(F)cc3Cl)n2)cc1,12.6
17,Cc1ccc(Sc2ncccc2C(=O)NCC(c2ccc(F)cc2)N2CCOCC2)c(C)c1 (centres unmarked),3.73
18,COc1ccc(OC)c(-c2cc(C(=O)Nc3ccccc3C(N)=O)c3ccccc3n2)c1,5.39
19,O=C(Cc1cccs1)N1CCN=C1SCc1ccc(F)cc1,8.19
20,Oc1ccccc1/C=N/n1c(-c2ccccc2)n[nH]c1=S,7.98
21,Cc1cccc(C)c1NC(=O)c1cnccn1,14.4
22,CC(=O)c1ccccc1NC(=O)CSc1nnc(Cc2csc(C)n2)o1,16.6

row,SMILES,"hERG current change (%, negative = inhibition) at 1uM [%]"
1,CCCc1[nH]nc2c1C(c1ccc(OC)c(Cn3nc(C)c(Br)c3C)c1)C(C#N)=C(N)O2 (centres unmarked),-3.09
2,COc1cc(/C=N/n2cnnc2)ccc1OC(=O)c1ccco1,1.56
3,CCOC(=O)C1CCN(C(=O)CCc2ccccc2)CC1,7.76
4,CCCOc1ccccc1C(=O)NC(CO)C(=O)O (centres unmarked),17
5,CCCN(C(=O)c1ccco1)c1nnc(-c2cccc(C)c2)s1,8.37
6,C=CCNC(=O)CSc1n[nH]c(-c2cc(Cl)ccc2OC)n1,14.4
7,CC(C)(C)C(=O)CSc1ccc(S(=O)(=O)N2CCN(Cc3ccccc3)CC2)cn1,8.75
8,Cc1cc(NC(=O)COC(=O)C2CCCN2C(=O)c2cccs2)no1 (centres unmarked),1.51
9,CC[C@@]12C(=O)N(c3cccc(Br)c3)C(=O)N1[C@H](c1cccc(C)c1)[C@@H]1C(=O)N(Cc3ccccc3)C(=O)[C@@H]12,15.2
10,COc1ccc(C)cc1NC(=O)C(Sc1nnnn1C)c1ccccc1 (centres unmarked),13.7
11,COc1cc(/C=C2/C(=N)N3C(=NC2=O)SN=C3S(C)(=O)=O)ccc1OS(=O)(=O)c1ccc(C)cc1,13.5
12,CN1C(=O)C2C(c3ccc(N(C)C)cc3)NN(Cc3ccccc3)C2C1=O (centres unmarked),10.9
13,O=C(CSc1ccc2nnc(CCNC(=O)c3ccccc3)n2n1)NCc1ccco1,7.6
14,COc1ccc(C2/C=C\CN(C(=O)Nc3ccccc3-c3ccccc3)CC(=O)N2Cc2ccc(F)cc2)cc1 (centres unmarked),17
15,CCOc1cc(/C=C2/SC(=S)N(CC3CCCO3)C2=O)ccc1O (centres unmarked),4.38
16,O=c1oc(C2(O)CCCCC2)cc2ccc(/C=C/c3ccc(F)cc3)cc12,14.5
17,CC(=O)Nc1c(C(=O)Nc2ccc3c(c2)OCO3)oc2ccccc12,18.3
18,COc1ccc(/C=C2\SC(=O)N(CCNC(=O)C3=COCCO3)C2=O)cc1,13.9
19,Cn1c(=O)[nH]c(=O)c2c1nc(N1CCCC1)n2CC(O)COc1ccccc1 (centres unmarked),-0.0131
20,CCOc1ccccc1C1CC(=O)NC2=C1C(=O)CC(C)(C)C2 (centres unmarked),4.62
21,CCOCCCn1c(SCC(=O)Nc2cccc(OC)c2)nc2ccccc2c1=O,-10.6
22,O=C(Nc1cccc(S(=O)(=O)Nc2ccc(Cl)cc2)c1)c1ccccn1.O=C(O)C(=O)O,3.5

row,SMILES,"hERG current change (%, negative = inhibition) at 1uM [%]"
1,CCN(c1ccc(NS(=O)(=O)c2cc(Cl)ccc2Cl)cc1)C(C)C,1.15
2,O=c1c2ccccc2nc(CN2CCCCCC2)n1-c1ccc(F)cc1,-2.58
3,CN(C)c1ccc(Nc2nc(N)c([N+](=O)[O-])c(N3CCOCC3)n2)cc1,9.17
4,CC1CC(C)CN(C(=O)CN2C(=O)NC3(CCCCCCC3)C2=O)C1 (centres unmarked),6.48
5,CCN1C(=O)N[C@@H](c2cccc(C(F)(F)F)c2)[C@H](C(C)=O)[C@H]1C,9.75
6,NS(=O)(=O)c1ccc(CCNC(=O)c2ccc(S(=O)(=O)N3CCCCC3)cc2)cc1,9.86
7,COc1ccc(-c2cc3ccc(OCc4nn[nH]n4)cc3oc2=O)cc1OC,-13.8
8,CN(CC(=O)Nc1c(Cl)cccc1Cl)C(=O)C1=COCCO1,11.6
9,O=C(NCc1ccccn1)c1cc(-c2ccccc2)on1,13.3
10,Cc1ccc2nc(-c3cc(-c4ccccc4)no3)cn2c1,8.64
11,O=C(O)Cn1nnnc1SCC(=O)Nc1ccc(OC(F)(F)F)cc1,8.73
12,O=C(CNC1C(=O)Nc2ccccc21)Sc1ccccc1 (centres unmarked),18.6
13,O=C(NC1=NCCS1)c1cc(-c2cccc(Br)c2)nc2ccccc12,10.1
14,COCCN(C(=O)COC(=O)c1ccc(Cl)s1)c1c(N)n(Cc2ccccc2)c(=O)[nH]c1=O,13
15,CC(=O)CCN1C(=O)NC2(CCCc3ccccc32)C1=O (centres unmarked),9.71
16,CCCCCCSc1ccc([C@@H]2[C@H]3C(=O)N(CC)C(=O)[C@H]3[C@]3(C(=O)OC)CCCN23)cc1.O=C(O)C(F)(F)F,6.41
17,CC(=O)N1CCc2ccc(S(=O)(=O)N3CC(C)OC(C)C3)cc21 (centres unmarked),16.6
18,CCn1c(C)nc2cc(C(=O)N/N=C(\C)c3ccc(N4CCOCC4)cc3)ccc21,12.9
19,CC[C@H](C)[C@@H](C(=O)N1CCNCC1)n1cc([C@@H](N)CC(C)C)nn1.Cl,14.1
20,CN(CCc1ccccc1)C(=O)CCc1nnc(Cc2ccc3c(c2)OCO3)o1,7.64
